Test results as given in the RNAGym collection of RNA variant scans (doi:10.1093/nar/gkz1192).
The source gives no read counts; variants with many changes may rest on few reads.

B1: CPEB3 Ribozyme (parent)
chain: UAACAGGGGGCCACAGCAGAAGCGUUCACGUCGCAGCCCCUGUCAGAUUCUGGUGAAUCUGCGAAUUCUGCUGUAUAUCUC

Variants of: B1
Assay: self-cleavage, relative activity (ratio to wild type); higher = more cleavage; in vitro, sequencing
In short: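 Relative activity compares each variant's cleaved/total read fraction with that of the unmutated ribozyme. To get these fractions, barcoded CPEB3 ribozyme libraries from rounds of error-prone PCR were transcribed with T7 RNA polymerase for 5 hours at 37°C and then given 15 min of DNase I treatment before EDTA was added. The RNAs were reverse transcribed with template switching and sequenced on Illumina, and DNA sequencing linked barcodes to variants. A minimum of 5 reads applied, and three batches were averaged.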

Variant	self-cleavage
U26A U41C C59A	0.09
U26A U41C U51A A65G	0.43
U26A U41C U51A U80A	0.33
U26A U41C U69C U78C	0.16
U26A U41G U54C	0.13
U26A U43A A64G	0.34
U26A U43A A64G A77G	0.24
U26A U43A A64U	0.14
U26A U43A U54A U60C U67A	0.14
U26A U43A U60A	0.13
U26A U43A U67C	0.08
U26A U43C A56U	0.19
U26A U43C U49C	0.15
U26A U43C U54C A64G	0.1
U26A U43C U60C U78C	0.11
U26A U43C U67C	0.37
U26A U43C U67G C79U	0.18
U26A U48A U49A	0.38
U26A U48C A56C U69C	0.11
U26A U48C A56G A77U	0.28
U26A U48C A64G A65C	0.14
U26A U48C A77C	0.34
U26A U48C U54A	0.38
U26A U48C U60A U72A	0.12

Variant	self-cleavage
U26A U48C U76C	0.53
U26A U48C U78C	0.52
U26A U49A A56U A64G U72C	0.79
U26A U49C A56G	0.99
U26A U49C U54C	0.31
U26A U49C U80A	0.26
U26A U51A A56G U72A	0.44
U26A U51A G63A G73A	1.23
U26A U51A U66C	0.17
U26A U51A U69C U78A	0.45
U26A U51A U78C	0.68
U26A U51C A57G	0.74
U26A U51C U54G A56G	0.19
U26A U51G A64C U78C	0.25
U26A U54A A64U A75U	0.15
U26A U54A U58C U67A U80C	0.18
U26A U54A U76A	1.05
U26A U54C U66C	0.14
U26A U58A U67A	0.1
U26A U58A U72A	0.19
U26A U58C A65C	0.33
U26A U60A U66C	0.29
U26A U60C U69C	0.22
U26A U60G U78A	0.3

Variant	self-cleavage
U26A U66C U72C	0.45
U26A U67C U78C	0.29
U26A U72C U76C U80A	1.21
U26A U72C U80C	1.12
U26A U74C U76C	1.2
U26C A28C C38U A56G A64G U72A	0.11
U26C A28C C44A	0.06
U26C A28C U67C	0.1
U26C A28G A35G A45C	0.32
U26C A28G A35U A47G A57U	0.08
U26C A28G A47G A56G	0.16
U26C A28G A57G	0.25
U26C A28G A57G U78C	0.22
U26C A28G A64G	0.12
U26C A28G G42U G55A A77U	0.08
U26C A28G U31A A65U	0.06
U26C A28G U41A A57G U78C	0.25
U26C A28G U41A G63A	0.31
U26C A28G U48C	0.13
U26C A28G U48C G73C	0.24
U26C A28G U48C U74C	0.3
U26C A28G U49A U54C U76G	0.09
U26C A28G U54A U58C U60C C79A	0.07
U26C A28G U54C	0.18

Variant	self-cleavage
U26C A28G U58G U67C	0.11
U26C A28G U60C C81U	0.15
U26C A28G U69A U76C	0.2
U26C A28G U78C	0.18
U26C A28U A35G U48C U67G	0.21
U26C A28U A45G U67C	0.15
U26C A28U A47G U72A	0.22
U26C A28U A56G	0.27
U26C A28U A77U U80C	0.09
U26C A28U U31C A35U A57G A64U U74A	0.06
U26C A28U U31C U41C U43A A77G	0.13
U26C A28U U41A	0.11
U26C A28U U43A U49C U58G C68A C71G	0.11
U26C A28U U48C U54C U72G	0.16
U26C A28U U48C U67C	0.32
U26C A28U U54A U69A U74C	0.12
U26C A28U U60C U78C	0.18
U26C A28U U80C	0.34
U26C A35C A45G U49A U58A U60A	0.13
U26C A35G A64G	0.82
U26C A35G A65G	0.81
U26C A35G A65U U72A	0.14
U26C A35G U41C	0.64
U26C A35G U41C U51A A65G	0.37

Variant	self-cleavage
U26C A35G U43C A77G	1.22
U26C A35G U43C U60C U80G	0.63
U26C A35G U51A	1.15
U26C A35G U54A	1.14
U26C A35G U54C	1.09
U26C A35G U60C A64G	0.25
U26C A35G U66C U80A	0.64
U26C A35U A45G A77G U80A	0.26
U26C A35U A45U U48C U54A A65U A75G	0.15
U26C A35U A75U	0.25
U26C A35U G42A U69C	0.2
U26C A35U U41C A56G U76C	0.12
U26C A35U U41C U49C	0.2
U26C A35U U41G A45U U49G U54C C81A	0.05
U26C A35U U43C A56G U60A A77U	0.07
U26C A35U U43C U54C A64U	0.16
U26C A35U U43C U69C	0.07
U26C A35U U51C U60C	0.12
U26C A35U U60C G70A C79U	0.07
U26C A35U U67C U69A U76C	0.11
U26C A35U U80A	0.14
U26C A45C U54C	0
U26C A45G A47G	0.37
U26C A45G A47U U49C U60C A65G U74C	0.17

Variant	self-cleavage
U26C A45G A57G	0.33
U26C A45G A64U	0.16
U26C A45G A64U U74A	0.05
U26C A45G C79A	0.24
U26C A45G U49A	0.06
U26C A45G U49C	0.18
U26C A45G U51A U54C U69C U72C	0.09
U26C A45G U54A	0.21
U26C A45G U54G A57G	0.06
U26C A45G U67C U72G	0.08
U26C A45G U78C	0.27
U26C A45U A65G	0.16
U26C A45U A77G	0.26
U26C A45U C71U	0.25
U26C A45U G63A A75G	0.06
U26C A45U U49C A64G	0.13
U26C A47G A56G	0.33
U26C A47G A56G U60A A65G	0.07
U26C A47G A77U	0.31
U26C A47G C50A U66C	0.2
U26C A47G C62A	0.47
U26C A47G U48C A56U U58C	0.13
U26C A47G U49A	0.46
U26C A47G U49C U74A	0.15

Variant	self-cleavage
U26C A47G U54C U60A U72A	0.09
U26C A47G U58A U60G U76C A77U	0.07
U26C A47G U66C U78A	0.05
U26C A47G U69A A75G	0.11
U26C A47U A64U U78A	0.21
U26C A47U U60C C62A C71U	0.05
U26C A56C A77G	0.21
U26C A56C C62A U80C	0.15
U26C A56G A64G	0.18
U26C A56G U69A	0.22
U26C A56G U72A U74C	0.52
U26C A56G U72C A77U	0.75
U26C A56U A57G	0.17
U26C A56U A64U	0.16
U26C A56U G73A	0.55
U26C A56U U58G	0.08
U26C A57G A64G	0.31
U26C A57G A65U U80A	0.6
U26C A57G C81U	0.33
U26C A57G U58C	0.16
U26C A57G U60A A65G C68U	0.12
U26C A57G U67C U69A	0.07
U26C A57G U69C A75G	0.1
